These results are taken from publication PMC4992631 (Experimental neurology, 2016).

The data set deals with the molecule itself. In words: SDS-PAGE and immunoblot of SDS-stable dimers.

B1: Pseudophosphorylated S422E tau (natural protein)
chain: not shown
A word on the stoichiometry N: it is a count of units in the complex or per binding partner. For B1, the “stoichiometry N” value was 2.
